The record followed here is paper PMC4403821.

The chains behind the UniProt entries cited, without tags or fusion partners. Residues count along the entry.
UniProt Q98146: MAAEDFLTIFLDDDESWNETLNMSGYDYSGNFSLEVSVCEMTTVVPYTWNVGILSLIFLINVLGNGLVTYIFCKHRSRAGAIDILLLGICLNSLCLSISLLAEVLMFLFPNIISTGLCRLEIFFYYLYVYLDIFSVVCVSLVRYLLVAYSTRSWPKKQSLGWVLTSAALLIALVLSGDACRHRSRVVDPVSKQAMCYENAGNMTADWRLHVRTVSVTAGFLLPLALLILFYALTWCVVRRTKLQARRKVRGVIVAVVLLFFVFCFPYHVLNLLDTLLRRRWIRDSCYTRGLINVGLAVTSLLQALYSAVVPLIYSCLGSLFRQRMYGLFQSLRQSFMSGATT
UniProt P02778, residues 22-98: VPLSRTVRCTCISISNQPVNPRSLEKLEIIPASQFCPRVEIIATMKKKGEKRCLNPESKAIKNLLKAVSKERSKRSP
UniProt P49407: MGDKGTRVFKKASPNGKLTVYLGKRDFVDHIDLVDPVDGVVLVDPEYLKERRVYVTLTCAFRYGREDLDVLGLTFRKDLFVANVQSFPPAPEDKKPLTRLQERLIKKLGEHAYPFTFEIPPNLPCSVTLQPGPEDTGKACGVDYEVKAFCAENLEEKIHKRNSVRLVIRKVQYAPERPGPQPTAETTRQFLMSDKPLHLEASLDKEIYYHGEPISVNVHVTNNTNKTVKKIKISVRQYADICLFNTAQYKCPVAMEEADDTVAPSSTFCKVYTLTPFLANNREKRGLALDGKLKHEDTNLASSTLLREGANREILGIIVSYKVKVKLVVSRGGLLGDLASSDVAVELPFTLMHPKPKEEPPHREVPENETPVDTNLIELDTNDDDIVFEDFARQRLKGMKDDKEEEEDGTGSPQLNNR

Assay [1] deals with WT-ORF74 (Kaposi's sarcoma-associated herpesvirus (KSHV)) (UniProt Q98146). As to the kind of experiment: radioligand binding; whole transfected HEK293T cells, 100 pM ^125I-CXCL10 with increasing unlabeled CXCL10, 3h at 4°C, 50 mM HEPES pH 7.4, 1 mM CaCl2, 5 mM MgCl2, 0.5% BSA; washes with 0.5 M NaCl; Ki from IC50 by Cheng and Prusoff; only the binder purified.
The target in assay [2] is ORF74-Rluc8 (Kaposi's sarcoma-associated herpesvirus (KSHV)) (UniProt Q98146). The assay is described as above.
Assay [3] shares this target. As to the kind of experiment: condition: only stimulated with CXCL10 alone, no agonist; FRET or BRET; HEK293T co-expressing ORF74-Rluc8 and β-arrestin1/2-eYFP, stimulated with increasing concentrations of CXCL10 alone, 10 min at 37°C, then 5 μM coelenterazine-h 5 min.
Assay [4] shares this target. As to the kind of experiment: FRET or BRET; saturation BRET without agonist (basal): constant ORF74-Rluc8 donor DNA with increasing β-arrestin1/2-eYFP acceptor DNA in HEK293T. In general terms: BRET reads energy transfer from a luciferase to a nearby fluorophore.
For assay [5] the target is unchanged. As to the kind of experiment: FRET or BRET; HEK293T co-expressing ORF74-Rluc8 (WT or mutant, donor) and β-arrestin1/2-eYFP (acceptor), DNA 1:4; stimulated with the agonists CXCL1 or CXCL8 (increasing concentrations or 300 nM CXCL1) 10 min at 37°C, then 5 μM coelenterazine-h 5 min; HBSS with 0.1% BSA.

Results are given in words; binding and its absence hold for the method and conditions named. For some assays here: Binding seen in cells or lysates may run through a third protein. Some binding calls cover weakened binding; strength is not graded here.

In the case of “^125I-CXCL10 (from UniProt P02778 22-98) (ligand)”, the binding result in assay [1] and in assay [2] was “binds” each time.
“β-arrestin1-eYFP (from UniProt P49407 1-418)”: the binding entry is “no binding” in assay [3], “no binding (condition: without agonist (basal))” in assay [4] and “binds” in assay [5].
“β-arrestin2-eYFP (from UniProt P32121 1-409)”: the values for the binding result in assay [3], in assay [4] and in assay [5] were “no binding”, “no binding (condition: without agonist (basal))” and “binds”, respectively.
